Laboratory results taken from PubChem BioAssay AID504332 (National Center for Advancing Translational Sciences (NCATS), 2011).
Among all 350,000 compounds or so, about 31,000 (8.9%) were called active. The inconclusive results got no clear call from the source; some entries with a clear call stand among them for comparison. Calls follow the shape of the dose curve; as a rule, active = well fitted inhibition curve with a large enough effect; inconclusive = small, poorly fitted or top-dose-only effect; inactive = no such curve, though single readings can be large or run the other way. Potencies beside an inconclusive call are fits to weak or partial responses and may not hold up.
% is scaled to controls: 0 for no effect and ±100 for the full control effect; potency is read from the fitted curve at half-maximal effect; tags tell the direction and shape of the fitted curve.
Also: nearly all actives have a fitted effect of over 75% in size.

Each compound was assayed against Histone-lysine N-methyltransferase EHMT2 (Homo sapiens) (UniProt Q96KQ7) (assay: qHTS Assay for Inhibitors of Histone Lysine Methyltransferase G9a). Conditions: G9a H3K9 monomethylation, AlphaScreen, 2 h; activity, negative = inhibition: at 59 µM (top of the series) unless noted.
Sequence of UniProt Q96KQ7 (Q96KQ7 whole entry, looked up): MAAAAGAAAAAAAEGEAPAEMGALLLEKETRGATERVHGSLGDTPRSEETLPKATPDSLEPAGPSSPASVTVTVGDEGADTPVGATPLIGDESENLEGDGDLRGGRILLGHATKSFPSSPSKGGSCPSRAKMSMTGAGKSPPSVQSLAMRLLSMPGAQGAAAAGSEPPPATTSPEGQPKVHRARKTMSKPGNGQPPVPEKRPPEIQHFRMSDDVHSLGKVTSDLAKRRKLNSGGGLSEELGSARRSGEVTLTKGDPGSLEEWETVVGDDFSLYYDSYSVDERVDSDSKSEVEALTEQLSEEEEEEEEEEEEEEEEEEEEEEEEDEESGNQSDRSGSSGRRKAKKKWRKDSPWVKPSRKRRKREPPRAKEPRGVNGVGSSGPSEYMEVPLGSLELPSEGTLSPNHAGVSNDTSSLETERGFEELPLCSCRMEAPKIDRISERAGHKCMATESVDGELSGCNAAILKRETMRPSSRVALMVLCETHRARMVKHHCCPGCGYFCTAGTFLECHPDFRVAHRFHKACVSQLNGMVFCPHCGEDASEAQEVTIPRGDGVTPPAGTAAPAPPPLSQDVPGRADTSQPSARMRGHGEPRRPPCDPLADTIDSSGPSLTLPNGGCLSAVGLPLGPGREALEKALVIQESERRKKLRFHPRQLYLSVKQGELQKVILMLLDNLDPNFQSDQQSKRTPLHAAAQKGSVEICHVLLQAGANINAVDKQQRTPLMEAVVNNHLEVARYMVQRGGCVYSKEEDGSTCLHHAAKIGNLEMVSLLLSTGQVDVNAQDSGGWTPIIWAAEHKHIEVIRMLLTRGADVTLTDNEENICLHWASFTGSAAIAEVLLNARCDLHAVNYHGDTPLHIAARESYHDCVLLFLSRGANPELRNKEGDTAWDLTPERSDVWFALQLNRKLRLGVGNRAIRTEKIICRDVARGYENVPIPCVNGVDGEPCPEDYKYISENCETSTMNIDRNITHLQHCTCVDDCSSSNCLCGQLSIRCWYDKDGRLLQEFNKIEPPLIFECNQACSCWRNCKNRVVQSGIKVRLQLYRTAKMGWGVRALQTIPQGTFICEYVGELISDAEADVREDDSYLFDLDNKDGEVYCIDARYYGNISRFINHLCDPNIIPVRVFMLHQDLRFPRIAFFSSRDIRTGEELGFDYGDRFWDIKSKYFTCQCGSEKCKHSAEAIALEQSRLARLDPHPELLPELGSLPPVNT
Summary of the method: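 Quantitative HTS format: methyltransferase activity on a biotin-tagged H3K9 peptide is measured by AlphaScreen, using a rabbit anti-monomethyl-H3K9 antibody with streptavidin donor and anti-IgG acceptor beads. Final levels are 20 nM enzyme, 500 nM peptide, 20 uM SAM; 2 h RT.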
With CN(C(=O)COC(=O)c1cc2ccccc2cc1O)c1c(N)n(Cc2ccccc2)c(=O)[nH]c1=O the activity, negative = inhibition was inactive: -2.99% [at 0.501 µM]. Cc1ccc(Sc2ccc([N+](=O)[O-])cc2[N+](=O)[O-])nc1 was tested, and the “activity, negative = inhibition” value was inactive: -23.2%. CCn1c(C)nc2cc(C(=O)NNC(=S)NC(=O)c3ccccc3)ccc21 was tested, and the Potency was active: 17.8 µM. In the case of CC(=O)NS(=O)(=O)c1ccc(NC(=O)c2ccc(Cl)cc2[N+](=O)[O-])cc1, the Potency is reported as inconclusive: 0.1 µM [inhibitor, full curve, poor fit]. For COc1ccc(-c2cc(C(F)(F)F)nc(-n3ccnc3C)n2)cc1, the “activity, negative = inhibition” value was inactive: 20.7%. With O=C(Nc1cccc(-c2nc3ccccc3o2)c1)c1cc([N+](=O)[O-])ccc1N1CCOCC1 the Potency was inconclusive: 1.78 µM [inhibitor, partial curve, poor fit]. With Cc1cccc(C)c1OCCSc1nc2ccccc2n1CC(=O)O the Potency was “inactive”. For CCSc1ncc(Cl)c(C(=O)N(Cc2ccc(N(C)C)cc2)C2CCS(=O)(=O)C2)n1 (stereo not drawn), the activity, negative = inhibition was inconclusive: -93.4% [inhibitor]. In the case of CSc1nnc(-c2sc3cc(C(F)(F)F)cnc3c2-c2cccnc2)n1C, the Potency is reported as active: 50.1 µM. O=c1c(C(c2ccc(O)cc2)c2c(O)nc3n(c2=O)CCS3)c(O)nc2n1CCS2 was tested, and the Potency was inconclusive: 10 µM [inhibitor, partial curve, poor fit]. In the case of Cc1c(NC(=O)c2ccc(C(C)(C)C)cc2)cccc1[N+](=O)[O-], the “activity, negative = inhibition” value is reported as inactive: 17% [at 102 µM]. In the case of Cc1cccc(N2CC(C)Cn3c2nc2c3c(=O)n(CC(=O)O)c(=O)n2C)c1 (stereo not drawn), the “activity, negative = inhibition” value is reported as inactive: 4.66%. With O=c1c2cc(N3CCOCC3)ccc2[nH]c(=S)n1Cc1ccco1 the Potency was active: 7.08 µM. Nc1nc(SCC(=O)Nc2cccc(Oc3ccccc3)c2)n[nH]1 was tested, and the Potency was active: 15.8 µM. With CCOC1=C/C(=C/c2c(N)n3nc(S(=O)(=O)CC)sc3nc2=O)C=CC1=O the Potency was active: 35.5 µM. For Cc1c(Cl)cccc1N1C(N)=C(C#N)C(c2cc(CN3CCOCC3)cs2)C2=C1CCCC2=O (stereo not drawn), the “activity, negative = inhibition” value was inactive: -0.455%. For Cc1ccccc1OCC(=O)NCC(=O)OCC(=O)c1ccc([N+](=O)[O-])cc1, the Potency was inconclusive: 70.8 µM [inhibitor, partial curve, poor fit]. In the case of COc1ccc(C(c2nnnn2C2CCCC2)N2CCN(C(=O)c3ccco3)CC2)cc1OC (stereo not drawn), the Potency is reported as inconclusive: 89.1 µM [inhibitor, single point]. For Fc1ccc(CSc2nnc3ccc(-c4ccncc4)nn23)cc1, the Potency was inconclusive: 28.2 µM [inhibitor, full curve]. N#Cc1c(NC(=O)CCC(=O)O)sc2c1CCCCC2 was tested, and the Potency was active: 44.7 µM. In the case of CCOc1ccc(S(=O)(=O)Nc2cc(Sc3ncn[nH]3)c3oc(=O)sc3c2)cc1, the Potency is reported as active: 31.6 µM. For Nc1c(C(=O)C2CC2)sc2nc3c(cc12)CCC3, the Potency was inconclusive: 89.1 µM [inhibitor, single point]. O=C1NN(c2ccccc2)C(=O)/C1=C\c1cccc(OC(=O)c2cccs2)c1 was tested, and the Potency was inconclusive: 3.55 µM [inhibitor, partial curve, poor fit]. With Cc1cc(-c2nnc(SCC(=O)Nc3ccccc3C(F)(F)F)n2N)n[nH]1 the “activity, negative = inhibition” value was inactive: -4.66% [at 102 µM]. CCOC(=O)N1CCc2c(sc(NCc3ccc(N(C)C)cc3)c2C(=O)Nc2ccc(OC)cc2)C1 was tested, and the Potency was active: 2.82 µM. In the case of COc1ccc(F)cc1S(=O)(=O)N1CC(C)CC(C)C1 (stereo not drawn), the “activity, negative = inhibition” value is reported as inactive: 32%. In the case of CN(C)c1ccccc1C(=O)N1CCCC(C(=O)c2ccc3ccccc3c2)C1 (stereo not drawn), the Potency is reported as active: 50.1 µM. In the case of COc1ccc(OC)c(C2=Nn3c(nnc3-c3cc(C)[nH]n3)SC2)c1, the Potency is reported as inconclusive: 89.1 µM [inhibitor, partial curve, poor fit]. In the case of O=C(c1ccc(Cl)cc1)c1c[nH]c(C(=O)NNc2cccc(Cl)n2)c1, the Potency is reported as inconclusive: 70.8 µM [inhibitor, partial curve, poor fit]. C=C(C)CNC(=S)/N=c1\scc(C)n1CC was tested, and the Potency was inconclusive: 31.6 µM [inhibitor, single point]. For CC(=O)Nc1ccc(NC(=O)CSc2ccc(-c3ccc4c(c3)OCO4)nn2)cc1, the Potency was active: 7.94 µM. COc1ccc(NC(=O)Nc2ccccc2C(N)=O)cc1 was tested, and the Potency was inconclusive: 44.7 µM [inhibitor, partial curve, poor fit]. COc1ccc(NC(=O)CCN2C(=O)C3C4CCC(C4)C3C2=O)cc1 (stereo not drawn) was tested, and the “activity, negative = inhibition” value was inactive: 25.1%. COc1ccc(CNc2ccnc(-c3cccc(C#N)c3)n2)c(OC)c1 was tested, and the activity, negative = inhibition was inactive: 4.19% [at 0.501 µM]. In the case of Cc1cc(NN)nc2ccc(Cl)cc12, the Potency is reported as active: 14.1 µM. Cc1cc(F)c(Nc2ncnc3cc(OCc4ccccc4)ccc23)cc1O was tested, and the Potency was inconclusive: 15.8 µM [inhibitor, partial curve]. O=[N+]([O-])c1cc(C=Nc2cccc3c(O)cccc23)ccc1Cl was tested, and the Potency was inconclusive: 89.1 µM [inhibitor, single point]. With N#Cc1c(NC(=O)CSc2nnc(-c3ccccc3)o2)sc2c1CCCC2 the Potency was inconclusive: 35.5 µM [inhibitor, single point]. In the case of CCN(CC)S(=O)(=O)c1cc(NC(=O)CNc2cccc(S(=O)(=O)N3CCOCC3)c2)ccc1C, the Potency is reported as inconclusive: 79.4 µM [inhibitor, partial curve]. CCc1ccccc1NC(=O)CSC1=Nc2ccccc2C2=NC(Cc3ccccc3)C(=O)N12 (stereo not drawn) was tested, and the “activity, negative = inhibition” value was inactive: 4.51%. In the case of Cc1ccc(Cn2c(=N)n(CC(O)COc3ccccc3)c3ccccc32)cc1 (stereo not drawn), the Potency is reported as inconclusive: 89.1 µM [inhibitor, partial curve, poor fit]. With O=C(CSc1nc2c([nH]c3ccccc32)c(=O)n1-c1ccc(F)cc1)NC1CCCCC1 the “activity, negative = inhibition” value was inactive: 10.5%. With O=C(Nc1cccc(Cl)c1N1CCOCC1)c1ccc2c(c1)OCCO2 the “activity, negative = inhibition” value was inactive: -12% [at 102 µM]. For CCCN(CCC)c1nc(-c2ccccc2F)nc2ccccc12, the “activity, negative = inhibition” value was inactive: 142%. With COc1cccc(-c2nc(CS(=O)(=O)CC(=O)Nc3cc(C)ccc3C)c(C)o2)c1 the Potency was inconclusive: 79.4 µM [inhibitor, single point]. For COc1ccc(O[C@H]2C=C[C@@H](c3ccccc3)O[C@@H]2CO/N=C(\C)CCC(=O)OC[C@H]2O[C@H](c3ccccc3)C=C[C@@H]2Oc2ccc(OC)cc2)cc1, the Potency was active: 44.7 µM. With CCOc1ccc(C(C)=O)cc1N1C(=O)C2C3C=CC(C3)C2C1=O (stereo not drawn) the activity, negative = inhibition was inactive: 15.8% [at 12.7 µM]. Cc1ccc(OCC(=O)N/N=C/C=C/c2ccco2)cc1C was tested, and the Potency was active: 39.8 µM. CCCCOc1ccc(C2C3CN(C(=O)OCC)CC=C3C(C#N)=C(N)C2(C#N)C#N)cc1OC (stereo not drawn) was tested, and the Potency was inconclusive: 6.31 µM [inhibitor, single point]. For COc1cc(Cl)c(C)cc1NC(=O)Cn1ncc2c(=O)oc3ccccc3c21, the Potency was inconclusive: 6.31 µM [inhibitor, single point]. NNc1nc2cc3c(cc2s1)OCCO3 was tested, and the Potency was active: 70.8 µM. With O=C(Nc1nnc(-c2ccco2)o1)c1ccc(S(=O)(=O)N2CCOCC2)cc1 the Potency was inconclusive: 50.1 µM [inhibitor, partial curve, poor fit]. COc1ccc2[nH]c(=O)c(CNc3ccccc3OC)cc2c1 was tested, and the Potency was active: 35.5 µM. For Cc1nnc(N2C(=O)C(O)=C(C(=O)c3ccco3)C2c2cccc3ccccc23)s1 (stereo not drawn), the Potency was active: 50.1 µM. Cc1cc(C(=O)N/N=C\c2cc(C(C)(C)C)ccc2O)n[nH]1 was tested, and the Potency was inconclusive: 100 µM [inhibitor, single point]. For Cn1c(N)c(C(=O)COC(=O)c2cc(-c3ccco3)nc3ccccc23)c(=O)n(C)c1=O, the Potency was active: 7.94 µM. Cc1ccc(C(C(=O)NCc2ccc(F)cc2)N(Cc2ccco2)C(=O)c2snc(C(N)=O)c2N)o1 (stereo not drawn) was tested, and the Potency was inconclusive: 70.8 µM [inhibitor, single point]. For Cc1ccc(OCCN2CCN(C)CC2)c([N+](=O)[O-])c1, the Potency was active: 2.51 µM. For N#CNc1nc(O)cc(=O)[nH]1, the Potency was active: 50.1 µM. With COc1ccc(C(=O)Nc2ccc(OCc3cc(=O)n4ccsc4n3)cc2)cc1OC the “activity, negative = inhibition” value was inactive: -0.705%. CN1CCN(S(=O)(=O)c2ccc(Oc3cccc(C(F)(F)F)c3)nc2)CC1 was tested, and the Potency was inconclusive: 89.1 µM [inhibitor, partial curve, poor fit]. In the case of O=C(N/N=C/c1ccco1)c1cc(-c2ccncc2)nc2ccccc12, the Potency is reported as inconclusive: 70.8 µM [inhibitor, partial curve]. With COc1ccc2cc(C(=O)NCc3ccc4c(c3)CCN4C(=O)c3ccccc3)[nH]c2c1 the “activity, negative = inhibition” value was inactive: -3.96%. In the case of CCCNC(=O)C1CCN(S(=O)(=O)c2ccc3c(c2)OCCO3)CC1, the “activity, negative = inhibition” value is reported as inactive: -27.9% [at 102 µM]. With CC1CCN(C(=O)CSc2nc(C3CC3)nc3ccccc23)CC1 the Potency was inconclusive: 39.8 µM [inhibitor, partial curve, poor fit]. With COc1ccc(-n2cnnc2SCC(=O)N2CCN(S(=O)(=O)c3ccccc3)CC2)cc1 the Potency was inconclusive: 39.8 µM [inhibitor, single point]. In the case of N#Cc1nc(-c2ccco2)oc1N1CCC(Cc2ccccc2)CC1, the Potency is reported as active: 28.2 µM. CCC(C)NC(=O)c1cn(-c2cccc(C)n2)cn1 (stereo not drawn) was tested, and the activity, negative = inhibition was inactive: 35.8% [at 0.501 µM]. In the case of CCCCn1c(-c2cccnc2)n[nH]c1=S, the Potency is reported as active: 25.1 µM. COc1cc(/C=C/CN2CCC(CO)(CC3CCCCO3)CC2)ccc1O (stereo not drawn) was tested, and the Potency was active: 56.2 µM. In the case of COCCn1nnnc1SCC(=O)c1ccc(F)cc1, the Potency is reported as inconclusive: 39.8 µM [inhibitor, single point]. For CCOc1ccc(S(=O)(=O)c2cn(Cc3ccccc3)c3ccc(OCC)cc3c2=O)cc1, the “activity, negative = inhibition” value was inactive: 4.03%. For Cc1cc(NC(=O)NCc2ccc3c(c2)CCN3C(=O)c2ccccc2)ccc1Br, the “activity, negative = inhibition” value was inactive: 18.5%.
